Where a name gives a salt, the structure may show the parent alone. ± gives the standard deviation of the averaged measurements. The full ranking holds about 1,900 compounds; the median of “normalised cell viability (NPI; 0 = phenylarsine oxide control, 1 = DMSO control)” is about 1, and the lowest 2% start at about 0.039. Some of the results follow.
Test system: NCI-H1944
Test: normalised cell viability (NPI; 0 = phenylarsine oxide control, 1 = DMSO control) (fraction of DMSO control); NCI-H1944 is a non-small cell lung cancer line; higher = more viable cells (less compound toxicity)
Settings: 6 days
[1] = glucocorticoid arm: hydrocortisone 2.75 uM co-treatment, compound 1 µM
[2] = glucocorticoid arm: hydrocortisone 2.75 uM co-treatment, compound 5 µM
[3] = glucocorticoid arm: hydrocortisone 2.75 uM pre-treated 2 days and continued, compound 1 µM
[4] = glucocorticoid arm: hydrocortisone 2.75 uM pre-treated 2 days and continued, compound 5 µM
[5] = glucocorticoid arm: vehicle, compound 1 µM
[6] = glucocorticoid arm: vehicle, compound 5 µM
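Further: CTB read-out in 384-well plates, mean of triplicate wells, normalised per plate against 1 µM phenylarsine oxide and 0.1% DMSO, compounds added 24 h after seeding.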

`N#CC(=Cc1ccc(O)c(O)c1)C(=O)NCc1ccccc1` [AG-490 (Tyrphostin B42)] gave a normalised cell viability [1] of 0.981 ± 0.016, a normalised cell viability [2] of 1.02 ± 0.01 and a normalised cell viability [3] of 0.974 ± 0.011. It also gave a normalised cell viability [4] of 0.995 ± 0.03, a normalised cell viability [5] of 0.991 ± 0.013 and a normalised cell viability [6] of 0.996 ± 0.013.

In the case of `N#CC(=Cc1ccc(O)c(O)c1)C(=O)NCc1ccccc1`, the normalised cell viability [1] is reported as 1.01, the normalised cell viability [2] is reported as 1.04 and the normalised cell viability [3] is reported as 1.01 ± 0.01. The normalised cell viability [4] was 1.03 ± 0.02, the normalised cell viability [5] was 1 ± 0.0085 and the normalised cell viability [6] was 1.003 ± 0.0058.

Molecule `COc1ccccc1-c1cc(Nc2cccc(CS(N)(=O)=O)c2)ncn1` has a normalised cell viability [1] of 1.013 ± 0.0058, a normalised cell viability [2] of 1.09 ± 0.025 and a normalised cell viability [3] of 1.02 ± 0.015. It also gave a normalised cell viability [4] of 1.05 ± 0.01, a normalised cell viability [5] of 0.99967 ± 0.00058 and a normalised cell viability [6] of 0.9673 ± 0.0087.

For `CC1(COc2ccc3c(c2)ncn3-c2ccc3cccc(N4CCC(N)CC4)c3n2)COC1`, the normalised cell viability [1] was 1.083 ± 0.0058, the normalised cell viability [2] was 1.09 ± 0.02 and the normalised cell viability [3] was 1.083 ± 0.0058. It also gave a normalised cell viability [4] of 1.09 ± 0.032, a normalised cell viability [5] of 0.9813 ± 0.0064 and a normalised cell viability [6] of 0.441 ± 0.03.

Molecule `C[C@@H](Oc1cc(-n2cnc3ccc(CN4CCN(C)CC4)cc32)sc1C(N)=O)c1ccccc1C(F)(F)F` has a normalised cell viability [1] of 0.336 ± 0.032, a normalised cell viability [2] of 0.478 ± 0.045 and a normalised cell viability [3] of 0.563 ± 0.052. For the same molecule, the normalised cell viability [4] was 0.731 ± 0.078, the normalised cell viability [5] was 0.0518 ± 0.0027 and the normalised cell viability [6] was 0.0552 ± 0.0035.

In the case of `CNCC[C@H](Oc1cccc2ccccc12)c1cccs1` [Duloxetine HCl], the normalised cell viability [1] is reported as 0.9993 ± 0.0011, the normalised cell viability [2] is reported as 0.9847 ± 0.0032 and the normalised cell viability [3] is reported as 1.01 ± 0.018. For the same molecule, the normalised cell viability [4] was 0.98 ± 0.015, the normalised cell viability [5] was 0.999 ± 0.0095 and the normalised cell viability [6] was 0.9923 ± 0.0083.

In the case of `NC(N)=NCCNS(=O)(=O)c1cccc2cnccc12` [HA-1004 hydrochloride], the normalised cell viability [1] is reported as 0.975 ± 0.013, the normalised cell viability [2] is reported as 0.956 ± 0.038 and the normalised cell viability [3] is reported as 0.972 ± 0.016. For the same molecule, the normalised cell viability [4] was 1.03 ± 0.01, the normalised cell viability [5] was 0.9777 ± 0.0049 and the normalised cell viability [6] was 0.9853 ± 0.0075.

For `CNC(=O)[C@H]1O[C@@H](n2cnc3c(NCc4cccc(I)c4)ncnc32)[C@H](O)[C@@H]1O`, the normalised cell viability [1] was 0.982 ± 0.008, the normalised cell viability [2] was 0.988 ± 0.02 and the normalised cell viability [3] was 0.975 ± 0.017. For the same molecule, the normalised cell viability [4] was 1 ± 0.067, the normalised cell viability [5] was 0.991 ± 0.0095 and the normalised cell viability [6] was 0.9897 ± 0.0049.

In the case of `C=C[C@H]1CN2CC[C@H]1C[C@@H]2[C@@H](O)c1ccnc2ccc(OC)cc12` [Quinidine sulfate], the normalised cell viability [1] is reported as 1 ± 0.013, the normalised cell viability [2] is reported as 1.04 ± 0.032 and the normalised cell viability [3] is reported as 0.83 ± 0.34. It also gave a normalised cell viability [4] of 1.09 ± 0.01, a normalised cell viability [5] of 1.01 and a normalised cell viability [6] of 1.05 ± 0.032.

In the case of `O=C1CCC(N2C(=O)c3ccccc3C2=O)C(=O)N1` (racemic) [(±)-Thalidomide], the normalised cell viability [1] is reported as 0.972 ± 0.0017, the normalised cell viability [2] is reported as 0.9803 ± 0.007 and the normalised cell viability [3] is reported as 1.01 ± 0.026. It also gave a normalised cell viability [4] of 0.9877 ± 0.0025, a normalised cell viability [5] of 0.9757 ± 0.0031 and a normalised cell viability [6] of 0.9767 ± 0.0049.

`CCc1nc(-c2cccc(C)c2)c(-c2ccnc(NC(=O)c3ccccc3)c2)s1` gave a normalised cell viability [1] of 0.9317 ± 0.0071, a normalised cell viability [2] of 0.863 ± 0.0076 and a normalised cell viability [3] of 0.918 ± 0.021. The normalised cell viability [4] was 0.873 ± 0.019, the normalised cell viability [5] was 0.9807 ± 0.0047 and the normalised cell viability [6] was 0.989 ± 0.011.

In the case of `O=C(CCCCCCC(=O)NO)NO` [Suberoyl bis-hydroxamic acid], the normalised cell viability [1] is reported as 0.958 ± 0.024, the normalised cell viability [2] is reported as 0.833 ± 0.053 and the normalised cell viability [3] is reported as 0.968 ± 0.021. It also gave a normalised cell viability [4] of 0.868 ± 0.04, a normalised cell viability [5] of 1.005 ± 0.0057 and a normalised cell viability [6] of 0.9962 ± 0.0093.

Molecule `CN(C)CCC=C1c2ccccc2CCc2ccccc21` [Amitriptyline hydrochloride] has a normalised cell viability [1] of 0.974 ± 0.0072, a normalised cell viability [2] of 0.922 ± 0.024 and a normalised cell viability [3] of 0.982 ± 0.0096. For the same molecule, the normalised cell viability [4] was 0.951 ± 0.0028, the normalised cell viability [5] was 0.992 ± 0.0072 and the normalised cell viability [6] was 0.997 ± 0.001.

`CN(C)CCC=C1c2ccccc2CCc2ccccc21` [Amitriptyline HCl] was tested, and the normalised cell viability [1] was 0.985 ± 0.03, the normalised cell viability [2] was 0.958 ± 0.021 and the normalised cell viability [3] was 0.9873 ± 0.004. For the same molecule, the normalised cell viability [4] was 0.979 ± 0.011, the normalised cell viability [5] was 0.9813 ± 0.006 and the normalised cell viability [6] was 0.9823 ± 0.0068.

`Cc1[nH]c(=O)c(C#N)cc1-c1ccncc1` [Milrinone] gave a normalised cell viability [1] of 0.996 ± 0.013, a normalised cell viability [2] of 1.001 ± 0.0083 and a normalised cell viability [3] of 0.998 ± 0.0035. The normalised cell viability [4] was 1.05 ± 0.081, the normalised cell viability [5] was 0.9903 ± 0.009 and the normalised cell viability [6] was 0.993 ± 0.015.

For `Cn1c(=O)c2[nH]cnc2n(C)c1=O` [Aminophylline ethylenediamine], the normalised cell viability [1] was 0.991 ± 0.0095, the normalised cell viability [2] was 0.979 ± 0.013 and the normalised cell viability [3] was 0.9913 ± 0.0099. It also gave a normalised cell viability [4] of 1 ± 0.026, a normalised cell viability [5] of 0.981 ± 0.015 and a normalised cell viability [6] of 0.9733 ± 0.0023.

`CNC(=O)c1ccc(-c2cnc3ncc(Cc4ccc5ncccc5c4)n3n2)cc1F` was tested, and the normalised cell viability [1] was 0.966 ± 0.02, the normalised cell viability [2] was 0.859 ± 0.01 and the normalised cell viability [3] was 0.947 ± 0.019. For the same molecule, the normalised cell viability [4] was 0.867 ± 0.041, the normalised cell viability [5] was 0.9877 ± 0.0068 and the normalised cell viability [6] was 0.948 ± 0.0095.

`Cn1c(=O)c2[nH]c(C3CCCC3)nc2n(C)c1=O` [8-Cyclopentyl-1,3-dimethylxanthine] gave a normalised cell viability [1] of 1.01 ± 0.011, a normalised cell viability [2] of 1.023 ± 0.0058 and a normalised cell viability [3] of 0.9963 ± 0.0055. It also gave a normalised cell viability [4] of 1.01, a normalised cell viability [5] of 1.002 ± 0.0068 and a normalised cell viability [6] of 0.9987 ± 0.0015.

For `CC(C)COCC(CN(Cc1ccccc1)c1ccccc1)N1CCCC1` (centres undefined) [Bepridil hydrochloride], the normalised cell viability [1] was 0.997 ± 0.02, the normalised cell viability [2] was 0.997 ± 0.043 and the normalised cell viability [3] was 1.007 ± 0.0058. For the same molecule, the normalised cell viability [4] was 1.03 ± 0.028, the normalised cell viability [5] was 0.9957 ± 0.0075 and the normalised cell viability [6] was 1.003 ± 0.0061.

Work on `NC(=O)c1ncn([C@@H]2O[C@H](CO)[C@@H](O)[C@H]2O)n1` [Ribavirin] yielded a normalised cell viability [1] of 0.9713 ± 0.0084, a normalised cell viability [2] of 0.9883 ± 0.0058 and a normalised cell viability [3] of 0.997 ± 0.04. The normalised cell viability [4] was 0.973 ± 0.011, the normalised cell viability [5] was 0.9797 ± 0.0067 and the normalised cell viability [6] was 0.9717 ± 0.0096.

`O=C(NCc1ccncc1)C12CC3CC(C1)CC(c1ccc(Cl)cc1)(C3)C2` showed a normalised cell viability [1] of 0.9823 ± 0.0023, a normalised cell viability [2] of 0.882 ± 0.017 and a normalised cell viability [3] of 1 ± 0.014. For the same molecule, the normalised cell viability [4] was 0.889 ± 0.013, the normalised cell viability [5] was 0.992 ± 0.022 and the normalised cell viability [6] was 1.01.

Molecule `NS(=O)(=O)c1cc2c(cc1Cl)N=CNS2(=O)=O` [Chlorothiazide] has a normalised cell viability [1] of 1.02, a normalised cell viability [2] of 1.01 ± 0.014 and a normalised cell viability [3] of 1.006 ± 0.0063. For the same molecule, the normalised cell viability [4] was 1.01 ± 0.03, the normalised cell viability [5] was 0.9877 ± 0.0038 and the normalised cell viability [6] was 0.9967 ± 0.0058.

Molecule `COc1cc2ncnc(Oc3cccc(NC(=O)Nc4cc(C(C)(C)C(F)(F)F)on4)c3)c2cc1OC` has a normalised cell viability [1] of 0.897 ± 0.022, a normalised cell viability [2] of 1.05 ± 0.01 and a normalised cell viability [3] of 0.934 ± 0.0085. The normalised cell viability [4] was 1.04 ± 0.021, the normalised cell viability [5] was 0.9767 ± 0.0076 and the normalised cell viability [6] was 1.02 ± 0.011.

Work on `CN[C@H](CC(C)C)C(=O)N[C@H]1C(=O)N[C@@H](CC(N)=O)C(=O)N[C@H]2C(=O)N[C@H]3C(=O)N[C@H](C(=O)N[C@H](C(=O)O)c4cc(O)cc(O)c4-c4cc3ccc4O)[C@H](O)c3ccc(c(Cl)c3)Oc3cc2cc(c3O[C@@H]2O[C@H](CO)[C@@H](O)[C@H](O)[C@H]2O[C@H]2C[C@](C)(N)[C@H](O)[C@H](C)O2)Oc2ccc(cc2Cl)[C@H]1O` [Vancomycin hydrochloride from Streptomyces orientalis] yielded a normalised cell viability [1] of 1.02 ± 0.01, a normalised cell viability [2] of 1.02 ± 0.021 and a normalised cell viability [3] of 1.03 ± 0.035. It also gave a normalised cell viability [4] of 1.02 ± 0.01, a normalised cell viability [5] of 1.007 ± 0.0058 and a normalised cell viability [6] of 1.02 ± 0.011.

From the supplement of paper PMC8285479
